Data published in a collection of fitness landscapes (doi:10.1126/science.1257360).
The other results are listed elsewhere or left out.

B1: PhoQ; a variant is named by its letters at X, in order, P23837 (parent)
chain: MKKLLRLFFPLSLRVRFLLATAAVVLVLSLAYGMVALIGYSVSFDKTTFRLLRGESNLFYTLAKWENNKLHVELPENIDKQSPTMTLIYDENGQLLWAQRDVPWLMKMIQPDWLKSNGFHEIEADVNDTSLLLSGDHSIQQQLQEVREDDDDAEMTHSVAVNVYPATSRMPKLTIVVVDTIPVELKSSYMVWSWFIYVLSANLLLVIPLLWVAAWWSLRPIEALAKEVRELEEHNRELLNPATTRELTSLVRNLNRLLKSERERYDKYRTTLTDLTHSLKTPLXXLQXXLRSLRSEKMSVSDAEPVMLEQISRISQQIGYYLHRASMRGGTLLSRELHPVAPLLDNLTSALNKVYQRKGVNISLDISPEISFVGEQNDFVEVMGNVLDNACKYCLEFVEISARQTDEHLYIVVEDDGPGIPLSKREVIFDRGQRVDTLRPGQGVGLAVAREITEQYEGKIVAGESMLGGARMEVIFGRQHSAPKDE

Variants of: B1
Assay: enrichment ratio after two sorts for PhoP signalling (ratio (wild type AVST 3.29)); higher = more functional
Settings: with PhoP (E. coli)

Row | Variant | enrichment ratio
1 | KYFG | ≤ 0.25
2 | RMAV | ≤ 0.25
3 | DESM | ≤ 0.25
4 | HDMR | ≤ 0.25
5 | IPAG | ≤ 0.25
6 | YDTY | ≤ 0.25
7 | VYLC | ≤ 0.25
8 | SLCM | 16.9
9 | MWDP | ≤ 0.25
10 | FAYQ | ≤ 0.25
11 | DHYT | ≤ 0.25
12 | KTFH | ≤ 0.25
13 | PGFM | ≤ 0.25
14 | ACYG | ≤ 0.25
15 | IMGK | ≤ 0.25
16 | FEFM | 1.67
17 | YFKV | ≤ 0.25
18 | WGSS | ≤ 0.25
19 | HQHN | ≤ 0.25
20 | YTDD | ≤ 0.25
21 | NTNT | ≤ 0.25
22 | YRDT | ≤ 0.25
23 | KFQG | ≤ 0.25
24 | NDPF | ≤ 0.25
25 | LRYI | ≤ 0.25
26 | IEGH | ≤ 0.25

Row | Variant | enrichment ratio
27 | PKVL | ≤ 0.25
28 | ILCK | ≤ 0.25
29 | PPHK | ≤ 0.25
30 | TCFK | ≤ 0.25
31 | MTWP | ≤ 0.25
32 | GKNA | ≤ 0.25
33 | AWGM | ≤ 0.25
34 | NHPS | ≤ 0.25
35 | YDMT | ≤ 0.25
36 | VIRW | ≤ 0.25
37 | LRTD | ≤ 0.25
38 | HTQE | ≤ 0.25
39 | RSQH | ≤ 0.25
40 | WRLM | ≤ 0.25
41 | SCVP | ≤ 0.25
42 | ARHM | ≤ 0.25
43 | PSFV | ≤ 0.25
44 | SDFA | ≤ 0.25
45 | ETHH | ≤ 0.25
46 | GLFV | ≤ 0.25
47 | PMAH | ≤ 0.25
48 | PYAN | ≤ 0.25
49 | ECPF | ≤ 0.25
50 | GTFW | ≤ 0.25
51 | GCPI | ≤ 0.25
52 | DGFH | ≤ 0.25

Row | Variant | enrichment ratio
53 | QYIH | ≤ 0.25
54 | PVQL | ≤ 0.25
55 | PQVG | ≤ 0.25
56 | SAWC | ≤ 0.25
57 | KNHQ | ≤ 0.25
58 | TYMI | ≤ 0.25
59 | YQPP | ≤ 0.25
60 | ISMR | ≤ 0.25
61 | TQED | ≤ 0.25
62 | WKDV | ≤ 0.25
63 | GVGF | 12
64 | KPDC | ≤ 0.25
65 | MEIH | 0.72
66 | PNAN | ≤ 0.25
67 | KHQT | ≤ 0.25
68 | NSCH | ≤ 0.25
69 | PRYN | ≤ 0.25
70 | WMLH | ≤ 0.25
71 | LPAP | ≤ 0.25
72 | PAGM | ≤ 0.25
73 | YFIM | ≤ 0.25
74 | YAWQ | ≤ 0.25
75 | LELD | ≤ 0.25
76 | PFAA | ≤ 0.25
77 | PVYW | ≤ 0.25
78 | NLGP | ≤ 0.25

Row | Variant | enrichment ratio
79 | VIWM | ≤ 0.25
80 | NVVM | ≤ 0.25
81 | HSHQ | ≤ 0.25
82 | KRIL | ≤ 0.25
83 | GGED | ≤ 0.25
84 | GNHL | ≤ 0.25
85 | KDVW | ≤ 0.25
86 | GTTI | 13.5
87 | KPVY | ≤ 0.25
88 | IVRV | ≤ 0.25
89 | QFLL | ≤ 0.25
90 | VNMF | ≤ 0.25
91 | LVST | ≤ 0.25
92 | KREC | ≤ 0.25
93 | KALC | ≤ 0.25
94 | PPQR | ≤ 0.25
95 | RKDP | ≤ 0.25
96 | RLTQ | ≤ 0.25
97 | SNAC | 10.5
98 | VPQN | ≤ 0.25
99 | VMLI | ≤ 0.25
100 | HQAR | ≤ 0.25
101 | GAII | 5.37
102 | TSHT | 3.42
103 | WIYQ | ≤ 0.25
104 | NHPW | ≤ 0.25

Row | Variant | enrichment ratio
105 | IVWN | ≤ 0.25
106 | SQFF | 1.49
107 | WIHM | ≤ 0.25
108 | AAQF | ≤ 0.25
109 | LRRI | ≤ 0.25
110 | VRKR | ≤ 0.25
111 | PSWY | ≤ 0.25
112 | AQNS | 2.79
113 | SFAW | ≤ 0.25
114 | WTPG | ≤ 0.25
115 | GVIS | ≤ 0.25
116 | QQFE | ≤ 0.25
117 | YGWG | ≤ 0.25
118 | TIEY | 1.14
119 | KAQG | ≤ 0.25
120 | RSPF | ≤ 0.25
121 | KLQM | ≤ 0.25
122 | QRFG | ≤ 0.25
123 | PARW | ≤ 0.25
124 | SNIR | ≤ 0.25
125 | RVVH | ≤ 0.25
126 | SLHQ | ≤ 0.25
127 | ECMR | ≤ 0.25
128 | MMTL | 13.2
129 | PSLI | ≤ 0.25
130 | HVPD | ≤ 0.25

Row | Variant | enrichment ratio
131 | FAVT | ≤ 0.25
132 | YMKL | ≤ 0.25
133 | TRCK | ≤ 0.25
134 | VYWE | ≤ 0.25
135 | RAMQ | ≤ 0.25
136 | IKFP | ≤ 0.25
137 | EIWF | ≤ 0.25
138 | DTAR | ≤ 0.25
139 | PAYW | ≤ 0.25
140 | LQHK | ≤ 0.25
141 | TAPP | ≤ 0.25
142 | SWHT | ≤ 0.25
143 | KGAF | ≤ 0.25
144 | EFHD | ≤ 0.25
145 | PNVY | ≤ 0.25
146 | IRII | ≤ 0.25
147 | GAFS | ≤ 0.25
148 | YTYE | ≤ 0.25
149 | LRDV | ≤ 0.25
150 | HRWT | ≤ 0.25
151 | VAWT | ≤ 0.25
152 | LEPM | ≤ 0.25
153 | VKEL | ≤ 0.25
